Source: publication PMC3326531 (Nature structural & molecular biology, 2006)

Target: T1, SENP1 C603A (415–644) (human, UniProt Q9P0U3 415-644, C603A)
T1 sequence: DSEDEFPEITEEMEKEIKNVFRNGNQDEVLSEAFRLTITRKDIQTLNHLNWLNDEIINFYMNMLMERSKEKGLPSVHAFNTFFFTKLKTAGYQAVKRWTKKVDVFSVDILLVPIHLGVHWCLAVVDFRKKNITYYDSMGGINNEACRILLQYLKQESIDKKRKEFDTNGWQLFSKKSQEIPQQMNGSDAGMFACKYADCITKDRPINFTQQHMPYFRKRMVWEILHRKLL
Test: ITC

- Kd: 492 nM
- dH: -4.38 kcal/mol
- stoichiometry N: 1
B1: full-length SUMO-2 (SUMO-2-FL) (natural protein)
chain: not shown
